For the assay, the target named is T1, FLAG Nercc (1-739) (human, UniProt Q8TD19 1-739).
T1 sequence: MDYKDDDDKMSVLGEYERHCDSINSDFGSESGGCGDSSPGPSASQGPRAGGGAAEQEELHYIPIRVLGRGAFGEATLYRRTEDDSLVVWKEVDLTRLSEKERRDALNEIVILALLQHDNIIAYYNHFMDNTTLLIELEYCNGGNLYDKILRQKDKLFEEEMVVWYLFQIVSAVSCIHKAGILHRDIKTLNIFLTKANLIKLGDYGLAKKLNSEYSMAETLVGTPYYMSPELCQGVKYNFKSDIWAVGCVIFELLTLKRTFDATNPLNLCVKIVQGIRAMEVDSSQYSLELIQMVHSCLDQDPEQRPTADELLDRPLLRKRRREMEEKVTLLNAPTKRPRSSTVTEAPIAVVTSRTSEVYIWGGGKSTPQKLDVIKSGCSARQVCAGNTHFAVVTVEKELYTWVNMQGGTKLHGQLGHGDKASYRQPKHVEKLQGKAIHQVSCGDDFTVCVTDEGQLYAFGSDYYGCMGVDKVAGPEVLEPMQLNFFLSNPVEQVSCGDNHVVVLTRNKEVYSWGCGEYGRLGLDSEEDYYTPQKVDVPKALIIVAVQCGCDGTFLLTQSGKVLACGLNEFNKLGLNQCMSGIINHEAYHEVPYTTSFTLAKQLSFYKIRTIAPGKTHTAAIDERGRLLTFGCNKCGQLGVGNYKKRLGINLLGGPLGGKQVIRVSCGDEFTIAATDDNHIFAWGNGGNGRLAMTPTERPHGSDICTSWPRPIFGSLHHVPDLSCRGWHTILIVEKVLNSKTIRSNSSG
As to the kind of experiment: GSH-agarose pull-down from co-transfected 293 cells, anti-FLAG blot. On the procedure: Inasmuch as the p120 Nercc kinase was identified as a protein that co-purified with the protein kinase Nek6, it was of interest to confirm this association by co-expression of a GST Nek6 fusion protein and a FLAG Nercc fusion protein in 293 cells. Several fusion proteins of full-length and truncated Nercc1 and Nek6 were prepared to test the interaction between Nercc and Nek6 using antibodies to FLAG and GST. Recombinant GST Nek6 fusion protein was affinity purified on glutathione (GSH)-agarose, and the eluate was probed with anti-FLAG antibody.

B1: GST Nek6 (enzyme)
chain: [letters of about 200 residues left out]SDLVPRGSPGMAGQPGHMPHGGSSNNLCHTLGPVHPPDPQRHPNTLSFRCSLADFQIEKKIGRGQFSEVYKATCLLDRKTVALKKVQIFEMMDAKARQDCVKEIGLLKQLNHPNIIKYLDSFIEDNELNIVLELADAGDLSQMIKYFKKQKRLIPERTVWKYFVQLCSAVEHMHSRRVMHRDIKPANVFITATGVVKLGDLGLGRFFSSETTAAHSLVGTPYYMSPERIHENGYNFKSDIWSLGCLLYEMAALQSPFYGDKMNLFSLCQKIEQCDYPPLPGEHYSEKLRELVSMCICPDPHQRPDIGYVHQVAKQMHIWMSST
notes: Expressed in 293 cells (pEBG) for pull-downs; also called wild type GST Nek6; GST Nek6 fusion protein
For the molecule B1, the binding result is “no binding”.

Values taken from patent US20060052582A1 (published 2006).
